{"source": "paper PMC4336329", "about": "(PLoS ONE, 2015)", "note": "The campaign covered roughly 310,000 compounds. About 2,200 (0.71%) showed an effect of 50% or more. The effect is printed as a negative number. The list shows a part of the results.", "data": [{"target": "human ether-à-go-go-related gene (hERG) potassium channel (human, UniProt Q12809)", "sequence (Q12809 whole entry, looked up)": "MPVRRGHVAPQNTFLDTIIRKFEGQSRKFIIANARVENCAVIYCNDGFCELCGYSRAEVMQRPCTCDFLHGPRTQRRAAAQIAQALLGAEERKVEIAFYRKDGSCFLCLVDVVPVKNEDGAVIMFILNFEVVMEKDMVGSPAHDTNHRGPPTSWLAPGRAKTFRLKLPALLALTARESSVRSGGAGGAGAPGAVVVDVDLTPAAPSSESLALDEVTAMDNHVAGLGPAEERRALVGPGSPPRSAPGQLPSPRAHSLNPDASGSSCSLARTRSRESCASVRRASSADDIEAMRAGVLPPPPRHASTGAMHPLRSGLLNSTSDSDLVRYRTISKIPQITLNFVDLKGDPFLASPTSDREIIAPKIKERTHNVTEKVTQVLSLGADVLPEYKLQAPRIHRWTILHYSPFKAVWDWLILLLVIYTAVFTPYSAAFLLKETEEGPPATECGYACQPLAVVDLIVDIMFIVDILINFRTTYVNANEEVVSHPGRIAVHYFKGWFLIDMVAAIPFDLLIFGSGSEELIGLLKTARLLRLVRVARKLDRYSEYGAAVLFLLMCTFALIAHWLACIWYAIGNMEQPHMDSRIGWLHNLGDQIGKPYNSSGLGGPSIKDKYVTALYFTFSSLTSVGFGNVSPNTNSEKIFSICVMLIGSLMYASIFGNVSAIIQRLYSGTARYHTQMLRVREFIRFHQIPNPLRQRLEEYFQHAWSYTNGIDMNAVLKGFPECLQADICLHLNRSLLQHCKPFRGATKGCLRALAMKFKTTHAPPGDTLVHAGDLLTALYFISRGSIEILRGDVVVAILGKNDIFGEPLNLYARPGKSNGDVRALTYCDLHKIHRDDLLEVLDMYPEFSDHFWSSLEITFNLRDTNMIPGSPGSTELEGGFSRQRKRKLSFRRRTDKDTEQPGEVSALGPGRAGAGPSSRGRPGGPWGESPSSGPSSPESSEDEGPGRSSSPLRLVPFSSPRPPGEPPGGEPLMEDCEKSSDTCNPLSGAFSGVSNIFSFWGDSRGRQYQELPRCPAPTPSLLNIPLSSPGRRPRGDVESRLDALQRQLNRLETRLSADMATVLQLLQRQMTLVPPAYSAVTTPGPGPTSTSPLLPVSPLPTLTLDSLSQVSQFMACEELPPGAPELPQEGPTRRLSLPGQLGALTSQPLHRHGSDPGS", "assay": "primary screen, population patch clamp on CHO cells stably expressing hERG", "units": {"hERG current change (%, negative = inhibition) at 1uM": "%"}, "values": [{"smiles": "Cc1c(C)c(C)c(C(=O)c2ccc(NC(=O)c3ccccc3C(=O)O)cc2)c(C)c1C", "hERG current change (%, negative = inhibition) at 1uM": 8.53}, {"smiles": "O=C(COC(=O)c1ccc(F)c(S(=O)(=O)N2CCOCC2)c1)c1ccc(Cl)cc1", "hERG current change (%, negative = inhibition) at 1uM": 0.724}, {"smiles": "COc1cc2nc(C(C)(C)C)oc(=O)c2cc1OC", "hERG current change (%, negative = inhibition) at 1uM": 6.72}, {"smiles": "O=C(c1ccc(OC2CCN(CCCc3ccccc3)CC2)cc1)N1CCCC1", "hERG current change (%, negative = inhibition) at 1uM": -55.2}, {"smiles": "O=C(CCSc1ccccc1)NCCN1CCOCC1", "hERG current change (%, negative = inhibition) at 1uM": -0.237}, {"smiles": "CC(C)NC(=O)CN(CCc1ccccc1)S(C)(=O)=O", "hERG current change (%, negative = inhibition) at 1uM": 9.06}, {"smiles": "O=C(O)CSc1cc(C(F)(F)F)nc(-c2ccccn2)n1", "hERG current change (%, negative = inhibition) at 1uM": 0.604}, {"smiles": "Clc1ccccc1-c1ncc(-c2ccccc2)o1", "hERG current change (%, negative = inhibition) at 1uM": 11.1}, {"smiles": "COc1ccccc1N1CCN(Cc2c(F)cccc2Cl)CC1", "hERG current change (%, negative = inhibition) at 1uM": 15.5}, {"smiles": "CC1CCc2c(C(=O)NCc3cccnc3)csc2C1", "note": "(stereo not shown)", "hERG current change (%, negative = inhibition) at 1uM": -1.14}, {"smiles": "CCOC(=O)C(Cc1ccccc1)NC(=O)CCc1nnc2ccc(N3CCOCC3)nn12", "note": "(stereo not shown)", "hERG current change (%, negative = inhibition) at 1uM": 14.1}, {"smiles": "N#Cc1cccc(NS(=O)(=O)c2ccc(S(=O)(=O)N3CCOCC3)cc2)c1", "hERG current change (%, negative = inhibition) at 1uM": 6.83}, {"smiles": "CCCCCC/C=N/Nc1nnc(Cc2ccccc2)c(=O)[nH]1", "hERG current change (%, negative = inhibition) at 1uM": 6.27}, {"smiles": "Cc1cc(OCC(=O)N(C)C2CCCCC2)ccc1Cl", "hERG current change (%, negative = inhibition) at 1uM": 14.8}, {"smiles": "CCOc1ccc(CCNC(=O)C2CCC(=O)N2CCc2ccccc2)cc1OCC", "note": "(stereo not shown)", "hERG current change (%, negative = inhibition) at 1uM": 5.12}, {"smiles": "COc1cc(OC)c(OC)cc1/C=N/n1c(C)nnc1C", "hERG current change (%, negative = inhibition) at 1uM": 4.32}, {"smiles": "Cn1ccnc1SCC(=O)c1cccc(Br)c1", "hERG current change (%, negative = inhibition) at 1uM": 12}, {"smiles": "COc1ccc(C(=O)N=C2SC3CS(=O)(=O)CC3N2Cc2ccc(F)cc2)cc1", "note": "(stereo not shown)", "hERG current change (%, negative = inhibition) at 1uM": 10.7}, {"smiles": "CC1=NN(C(N)=S)C(=O)C1N=Nc1cccc(Cl)c1C", "note": "(stereo not shown)", "hERG current change (%, negative = inhibition) at 1uM": 15.2}, {"smiles": "CC(C)CNc1nnnc2c1sc1nc(N3CCOCC3)c3c(c12)CCCC3", "hERG current change (%, negative = inhibition) at 1uM": 12.8}, {"smiles": "COc1cc(NC(=O)c2ccccc2Cl)c(OC)cc1NC(=O)CN1CCOCC1", "hERG current change (%, negative = inhibition) at 1uM": 7.62}, {"smiles": "CCN(CC)/C(=N\\S(=O)(=O)c1ccccc1C)c1ccccc1", "hERG current change (%, negative = inhibition) at 1uM": -5.09}, {"smiles": "CC(C)(C)SCCNS(=O)(=O)c1ccc(Cl)cc1", "hERG current change (%, negative = inhibition) at 1uM": 14.3}, {"smiles": "CCOc1cc(/C=N/NC(=O)c2cc(-c3ccccc3)nc3ccccc23)ccc1O", "hERG current change (%, negative = inhibition) at 1uM": 9.2}, {"smiles": "Cc1ccnn1CC(=O)N/N=C/c1cn[nH]c1-c1ccccc1", "hERG current change (%, negative = inhibition) at 1uM": 13.5}, {"smiles": "CC(=O)NC1C(Oc2ccc(C)cc2)OC2COC(c3ccco3)OC2C1O", "note": "(stereo not shown)", "hERG current change (%, negative = inhibition) at 1uM": 11}, {"smiles": "CCN(Cc1ccccc1)C(=O)CSc1nc(C)cc2c1C(=O)OC2", "hERG current change (%, negative = inhibition) at 1uM": -3.89}, {"smiles": "COc1ccc(NC(=O)c2nc[nH]c2C(=O)N[C@@H](CC(C)C)C(=O)OC(C)(C)C)cc1", "hERG current change (%, negative = inhibition) at 1uM": 16.4}, {"smiles": "COc1ccc(C2=NNC(c3ccco3)=Nc3ccc(F)cc32)cc1", "hERG current change (%, negative = inhibition) at 1uM": 1.37}, {"smiles": "CCCCCC[n+]1c(-c2ccc(Cl)cc2Cl)csc1Nc1ccccc1.[Cl-]", "hERG current change (%, negative = inhibition) at 1uM": 8.29}, {"smiles": "CCC(Sc1nc(=O)cc(N)n1CCc1ccccc1)C(=O)Nc1cc(C)on1", "note": "(stereo not shown)", "hERG current change (%, negative = inhibition) at 1uM": 0.583}, {"smiles": "CCc1c(C)nc(SCCOc2ccc(OC(C)C)cc2)[nH]c1=O", "hERG current change (%, negative = inhibition) at 1uM": 19.4}, {"smiles": "CC1(C)CC(=O)C2=C(C1)NC1=C(C(=O)c3ccccc31)C2c1cccnc1", "note": "(stereo not shown)", "hERG current change (%, negative = inhibition) at 1uM": 12.1}, {"smiles": "COc1ccc(-n2c(O)c(/C=N/NS(=O)(=O)c3cc(C)ccc3C)c3ccccc3c2=O)cc1OC", "hERG current change (%, negative = inhibition) at 1uM": 15.5}, {"smiles": "CCOC(=O)C1CCCN(C(=O)c2cc3c(C)nc4ccccc4c3o2)C1", "note": "(stereo not shown)", "hERG current change (%, negative = inhibition) at 1uM": -17.7}, {"smiles": "O=C(CN1CCOCC1)Nc1ccc2c(c1)OCO2", "hERG current change (%, negative = inhibition) at 1uM": 20.1}, {"smiles": "CCOC(=O)C1=C(c2ccccc2)NC(=O)NC1c1ccc(N(C)C)cc1", "note": "(stereo not shown)", "hERG current change (%, negative = inhibition) at 1uM": 7.74}, {"smiles": "Cc1cc(N2C(=O)CC(Cc3ccccc3)C2=O)no1", "note": "(stereo not shown)", "hERG current change (%, negative = inhibition) at 1uM": 6.33}, {"smiles": "CCCc1cc(C(=O)NCCc2ccccc2)no1", "hERG current change (%, negative = inhibition) at 1uM": -4.85}, {"smiles": "Cc1ccc(NC(=O)N2CCCCCC2)cc1", "hERG current change (%, negative = inhibition) at 1uM": 0.321}, {"smiles": "CCOC(=O)C1CCCN(Cc2cc(Br)c(OC)cc2OC)C1", "note": "(stereo not shown)", "hERG current change (%, negative = inhibition) at 1uM": 9.63}, {"smiles": "COCCNc1ccc(S(=O)(=O)N2CCCC2)cn1", "hERG current change (%, negative = inhibition) at 1uM": 7.88}, {"smiles": "Cc1nn(Cc2c(Cl)cccc2Cl)c(C)c1N", "hERG current change (%, negative = inhibition) at 1uM": 5.33}, {"smiles": "Cc1ccc(CN(Cc2cc3cccc(C)c3[nH]c2=O)C(=O)N(C)C)cc1", "hERG current change (%, negative = inhibition) at 1uM": 7.2}, {"smiles": "Cc1ccc(CCN2C(=O)c3ccccc3C2C(=O)NCc2cccnc2)cc1", "note": "(stereo not shown)", "hERG current change (%, negative = inhibition) at 1uM": 6.86}, {"smiles": "COc1ccccc1Nc1nc(N)nc(CN2CCC(C)CC2)n1", "hERG current change (%, negative = inhibition) at 1uM": -37.3}, {"smiles": "Nc1c(-c2ccc(Cl)cc2)cnc2c(-c3ccccc3)cnn12", "hERG current change (%, negative = inhibition) at 1uM": 18.5}, {"smiles": "O=C(Cn1cc([N+](=O)[O-])cn1)NCc1ccco1", "hERG current change (%, negative = inhibition) at 1uM": -26.4}, {"smiles": "O=C(NCc1ccccc1F)C1CCCN(S(=O)(=O)c2ccc(-n3cnnn3)cc2)C1", "note": "(stereo not shown)", "hERG current change (%, negative = inhibition) at 1uM": -2.46}, {"smiles": "O=C(CC1(c2ccc(Cl)cc2)C2CC3CC(C2)CC1C3)NCCO", "note": "(stereo not shown)", "hERG current change (%, negative = inhibition) at 1uM": 7.57}, {"smiles": "CCOc1ccc(C(=O)COC(=O)CN2C(=O)NC3(CCCCC3C)C2=O)cc1", "note": "(stereo not shown)", "hERG current change (%, negative = inhibition) at 1uM": -5.7}, {"smiles": "CCOc1ccccc1-n1c(SCC(=O)NC(C)(C)C)nnc1-c1ccoc1C", "hERG current change (%, negative = inhibition) at 1uM": 14.3}, {"smiles": "CC(CCC(=O)O)C1CCC2C3CCC4C[C@H](O)CCC4(C)C3CC(=O)C12C", "note": "(stereo partly shown)", "hERG current change (%, negative = inhibition) at 1uM": 14.9}, {"smiles": "Cc1cccc(C)c1NC(=O)CN(C)C(=O)c1cccc(NS(=O)(=O)c2ccccc2)c1", "hERG current change (%, negative = inhibition) at 1uM": -4.64}, {"smiles": "CCCc1cc(=O)oc2cc(OCC(=O)NCCc3c[nH]c4ccccc34)ccc12", "hERG current change (%, negative = inhibition) at 1uM": -17.7}, {"smiles": "CCCCn1c(CN2CCN(CCO)CC2)nc2ccccc21", "hERG current change (%, negative = inhibition) at 1uM": -26.6}, {"smiles": "CCOC(=O)N1CCN(S(=O)(=O)c2ccc(F)cc2)CC1", "hERG current change (%, negative = inhibition) at 1uM": 13.6}, {"smiles": "COc1cc(C(=O)Nc2ccc3c(c2)Cc2cc(NC(=O)c4cc(OC)c(OC)c(OC)c4)ccc2-3)cc(OC)c1OC", "hERG current change (%, negative = inhibition) at 1uM": 14.8}]}]}
